# Values joined by “and” are separate entries in the source; they are usually repeats but may differ in a detail not shown here. Identical values can stand only once. Inconclusive results, whose numbers are uncertain, are shown with a selection of clear calls. For part of these data: A potency beside an inconclusive call is a rough fit, not a confirmed value. Active and inactive are the calls of the source. Unless noted, the call rests on the fitted dose curve; in most records, active means well fitted curve in the direction sought with a large enough effect in the repeat runs; inconclusive means weak or mixed curves; inactive means no such curve, though single readings can be large; an effect the other way counts as inactive or inconclusive.
# What was measured:
# [1] = qHTS assay to identify small molecule antagonists of the estrogen receptor alpha (ER-alpha) signaling pathway - cell viability counter screen (AID 743074; calls by dose curve;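 further: HEK293 cells carrying ER-alpha-UAS-bla reporter stimulated with 17beta-estradiol; nearly all actives have a fitted effect of over 45% in size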)
# [2] = target: Estrogen receptor (Homo sapiens) (UniProt P03372); assay: qHTS assay to identify small molecule agonists of the estrogen receptor alpha (ER-alpha) signaling pathway using the BG1 cell line (AID 743079); conditions: BG1Luc4E2 cells, ERE-luciferase agonist, 22 h; activation: at 70.3 µM (top of the series) unless noted; further: nearly all actives have a fitted effect of over 20% in size
# UniProt P03372, sequence (P03372 whole entry, looked up): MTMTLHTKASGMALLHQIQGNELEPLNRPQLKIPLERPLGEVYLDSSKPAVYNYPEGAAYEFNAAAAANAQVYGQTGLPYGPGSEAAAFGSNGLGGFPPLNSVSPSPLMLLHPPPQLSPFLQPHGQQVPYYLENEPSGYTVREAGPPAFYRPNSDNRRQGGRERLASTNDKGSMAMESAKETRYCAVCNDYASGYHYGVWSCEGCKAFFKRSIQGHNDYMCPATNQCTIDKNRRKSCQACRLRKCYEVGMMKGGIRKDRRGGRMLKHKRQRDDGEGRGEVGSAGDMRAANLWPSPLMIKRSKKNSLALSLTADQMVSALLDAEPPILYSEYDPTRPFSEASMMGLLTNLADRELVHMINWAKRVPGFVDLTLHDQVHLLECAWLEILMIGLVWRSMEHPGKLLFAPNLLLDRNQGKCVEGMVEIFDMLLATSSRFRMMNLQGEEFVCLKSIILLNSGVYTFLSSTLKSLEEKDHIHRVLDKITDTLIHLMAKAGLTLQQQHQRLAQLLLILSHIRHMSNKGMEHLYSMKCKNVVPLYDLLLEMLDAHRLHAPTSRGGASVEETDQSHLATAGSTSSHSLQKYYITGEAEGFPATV
# [3] = target: Peroxisome proliferator-activated receptor delta (Homo sapiens) (UniProt Q03181); assay: qHTS assay to identify small molecule antagonists of the peroxisome proliferator-activated receptor delta (PPARd) signaling pathway (AID 743215; active means well fitted inhibition curve with a large enough effect in the signal ratio in the repeat runs, not every such curve was filed as active; inconclusive means weak or mixed curves, or effect the other way; inactive means no such curve, though single readings can be large or run the other way; the % refers to the signal ratio;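 further: cells stimulated with agonist L165041 at 300 nM final during compound exposure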; on ratio activity, negative = inhibition: on the % scale 0 is the no-effect control and ±100 the full control effect); conditions: HEK293H PPARd-UAS-bla, beta-lactamase FRET ratio, antagonist, 17 h; ratio activity, negative = inhibition: at 62 µM (top of the series) unless noted
# UniProt Q03181, sequence (Q03181 whole entry, looked up): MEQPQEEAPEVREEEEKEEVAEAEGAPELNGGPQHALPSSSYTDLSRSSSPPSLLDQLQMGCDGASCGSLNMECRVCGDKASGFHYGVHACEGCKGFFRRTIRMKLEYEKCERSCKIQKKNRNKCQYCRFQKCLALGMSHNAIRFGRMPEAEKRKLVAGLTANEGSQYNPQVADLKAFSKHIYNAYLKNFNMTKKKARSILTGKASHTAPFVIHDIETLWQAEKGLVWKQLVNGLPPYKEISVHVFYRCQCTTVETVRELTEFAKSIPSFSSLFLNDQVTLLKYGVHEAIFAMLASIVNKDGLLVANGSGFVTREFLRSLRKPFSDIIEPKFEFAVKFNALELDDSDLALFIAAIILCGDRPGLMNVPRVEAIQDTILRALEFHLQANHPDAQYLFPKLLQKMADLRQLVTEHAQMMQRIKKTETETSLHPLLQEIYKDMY
# Outline: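 Read-out is beta-lactamase FRET fluorescence, measured 2 h after substrate addition at room temperature. Beforehand, UAS-bla HEK293H cells carrying the PPARd reporter were exposed to compounds with L165041 at 300 nM final for 17 h at 37 C.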
# [4] = qHTS RealTime-Glo MT Cell Viability Assay in HEK293 cells - 32 hour (AID 1224868); further: nearly all actives have a fitted effect of over 50% in size
# Outline: (§1)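 Nonlytic real-time viability readout: viable cells convert prosubstrate to NanoLuc substrate, giving luminescence proportional to live cell number. HEK293, 600 cells/well, compound added after 5 h, continuous culture at 37 C.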
# [5] = qHTS RealTime-Glo MT Cell Viability Assay in HEK293 cells - 16 hour (AID 1224872); further: nearly all actives have a fitted effect of over 50% in size
# Outline: as §1
# [6] = qHTS RealTime-Glo MT Cell Viability Assay in HEK293 cells - 24 hour (AID 1224886); further: nearly all actives have a fitted effect of over 50% in size
# Outline: as §1
# [7] = target: Estrogen receptor beta (Homo sapiens) (UniProt Q92731); assay: qHTS assay to identify small molecule agonists of the estrogen receptor beta (ER-beta) signaling pathway (AID 1259377; active means well fitted activation curve with a large enough effect in the signal ratio in the repeat runs, not every such curve was filed as active; inconclusive means weak or mixed curves, or effect the other way; the % refers to the signal ratio; on activation: on the % scale 0 is the no-effect control and ±100 the full control effect); conditions: ER-beta-UAS-bla HEK293T, beta-lactamase FRET ratio, 16 h; activation: at 92.4 µM (top of the series) unless noted
# UniProt Q92731, sequence (Q92731 whole entry, looked up): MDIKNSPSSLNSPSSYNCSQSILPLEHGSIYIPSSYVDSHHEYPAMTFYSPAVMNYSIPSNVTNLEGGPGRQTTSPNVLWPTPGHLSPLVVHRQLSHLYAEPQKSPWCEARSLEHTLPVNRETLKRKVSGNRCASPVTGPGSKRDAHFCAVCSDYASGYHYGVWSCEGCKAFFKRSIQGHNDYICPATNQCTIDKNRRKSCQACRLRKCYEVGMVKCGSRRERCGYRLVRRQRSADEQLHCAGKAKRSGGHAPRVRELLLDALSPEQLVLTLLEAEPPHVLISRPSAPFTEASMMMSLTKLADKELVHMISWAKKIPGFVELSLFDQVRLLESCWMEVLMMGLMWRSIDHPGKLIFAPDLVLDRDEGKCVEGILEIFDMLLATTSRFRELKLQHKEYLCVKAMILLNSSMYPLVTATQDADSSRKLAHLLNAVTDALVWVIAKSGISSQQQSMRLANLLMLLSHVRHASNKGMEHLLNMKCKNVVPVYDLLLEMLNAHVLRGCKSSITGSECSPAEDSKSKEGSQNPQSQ
# Outline: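 ER-beta-UAS-bla HEK293T (GripTite) cells carrying a UAS-driven beta-lactamase reporter, in medium with 2% charcoal-stripped FBS, were exposed to compounds for 16 hr at 37C; LiveBLAzer B/G FRET substrate was then added and fluorescence read after 2 hours at room temperature.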
# [8] = target: Nuclear receptor subfamily 1 group I member 2 (Homo sapiens) (UniProt O75469); assay: Human pregnane X receptor (PXR) small molecule agonists, qHTS assay (AID 1346982); further: nearly all actives have a fitted effect of over 35% in size
# UniProt O75469, sequence (O75469 whole entry, looked up): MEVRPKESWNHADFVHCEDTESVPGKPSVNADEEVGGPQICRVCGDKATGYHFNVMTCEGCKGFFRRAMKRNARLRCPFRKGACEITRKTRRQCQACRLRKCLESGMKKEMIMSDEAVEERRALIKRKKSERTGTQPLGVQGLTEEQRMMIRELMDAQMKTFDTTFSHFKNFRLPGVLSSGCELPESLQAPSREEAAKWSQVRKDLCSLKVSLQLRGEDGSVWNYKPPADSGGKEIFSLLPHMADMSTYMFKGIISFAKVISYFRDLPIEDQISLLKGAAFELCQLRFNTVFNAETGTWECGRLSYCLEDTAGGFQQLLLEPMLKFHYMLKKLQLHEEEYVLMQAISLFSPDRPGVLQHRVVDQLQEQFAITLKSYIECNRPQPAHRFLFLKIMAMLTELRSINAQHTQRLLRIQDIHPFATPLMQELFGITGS
# Outline: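 Luciferase signal from ONE-Glo (30 min, room temperature) measured activation of hPXR-driven CYP3A4 reporter expression in PXR-Luc HepG2 cells treated with compounds for 24 hr at 37 C.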
# [9] = qHTS assay for identifying genotoxic compounds that show differential cytotoxicity against isogenic chicken DT40 cell lines with known DNA damage response pathways - wild type cell line (AID 743012); conditions: DT40 wild type chicken cells viability, CellTiter-Glo, 40 h; activity change, negative = cytotoxicity: at 68.4 µM (top of the series) unless noted; further: nearly all actives have a fitted effect of over 60% in size; on activity change, negative = cytotoxicity: on the % scale 0 is the no-effect control and ±100 the full control effect
# Outline: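 Wild type DT40, 300 cells/well, ~0.5 h settle at 37 C/5% CO2; compounds in DMSO added by pintool; 40 h at 37 C/5% CO2; CellTiter-Glo, 30 min RT; luminescence.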
# [10] = Caspase-3/7 induction in CHO-K1 cells by small molecules, qHTS cell viability counter screen (AID 1346979); further: nearly all actives have a fitted effect of over 35% in size
# Outline: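 Wild-type CHO-K1 cells were seeded at 1,500 per well, rested 5hr at 37 C, then exposed to compounds in DMSO. After 16hr, CellTiter-Fluor reagent was added and fluorescence read 1hr later as the viability measure.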
# [11] = qHTS assay to identify small molecule agonists of the RXR signaling pathway - cell viability counter screen (AID 1159529); further: nearly all actives have a fitted effect of over 50% in size; on activity change, negative = cytotoxicity: on the % scale 0 is the no-effect control and ±100 the full control effect
# Outline: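 RXR-alpha-UAS-bla HEK 293T cells in medium with 2% charcoal-stripped FBS were preincubated 5 hr, then exposed to compounds for 16 hr at 37 C. Viability was read as CellTiter-Glo luminescence after 30 min at room temperature.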
# [12] = qHTS assay to identify small molecule agonists of the vitamin D receptor (VDR) signaling pathway - cell viability counter screen (AID 743224); further: nearly all actives have a fitted effect of over 50% in size
# Outline: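 Luminescence from CellTiter-Glo, read after 30 min at room temperature, reports viability of VDR-bla cells treated with compounds for 16 h at 37C in the wells used for the beta-lactamase FRET read.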
# [13] = target: Cytochrome P450 2C19 (Homo sapiens) (UniProt P33261); assay: Cytochrome P450 Family 2 Subfamily C Member 19 (CYP2C19) small molecule antagonists: luciferase reporter qHTS assay (AID 1671197); further: nearly all actives have a fitted effect of over 65% in size
# UniProt P33261, sequence (P33261 whole entry, looked up): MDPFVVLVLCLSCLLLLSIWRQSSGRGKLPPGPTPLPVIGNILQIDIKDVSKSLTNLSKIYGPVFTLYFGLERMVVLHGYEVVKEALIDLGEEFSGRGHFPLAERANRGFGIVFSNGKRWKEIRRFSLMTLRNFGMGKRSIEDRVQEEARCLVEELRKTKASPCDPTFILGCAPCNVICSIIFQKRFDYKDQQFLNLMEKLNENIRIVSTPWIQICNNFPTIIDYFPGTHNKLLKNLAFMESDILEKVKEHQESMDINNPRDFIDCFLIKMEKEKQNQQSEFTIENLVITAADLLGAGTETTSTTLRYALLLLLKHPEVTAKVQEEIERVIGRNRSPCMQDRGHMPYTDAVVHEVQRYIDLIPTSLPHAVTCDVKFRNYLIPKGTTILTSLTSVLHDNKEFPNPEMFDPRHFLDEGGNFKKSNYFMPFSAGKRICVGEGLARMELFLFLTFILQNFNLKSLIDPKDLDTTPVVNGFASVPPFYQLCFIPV
# Outline: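 CYP2C19 P450-Glo, 1536-well qHTS. Cpd + enzyme/proluciferin substrate 10 min RT; + NADPH regen, 37C 1 h; stop with luciferin detection reagent, 20 min RT, luminescence (RLU). Pos ctrl ketoconazole.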
# [14] = qHTS assay for small molecule agonists of the p53 signaling pathway (AID 651631; calls by dose curve; further: nearly all actives have a fitted effect of over 15% in size); conditions: HCT-116 p53RE-bla reporter, beta-lactamase FRET ratio, 16 h; activation: at 73.3 µM (top of the series) unless noted
# Outline: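 HCT-116 cells carrying a stable p53 response element–beta-lactamase reporter were plated, rested 5 h at 37 °C, then exposed to compound in DMSO for 16 h at 37 °C; reporter activity was read as FRET substrate fluorescence after 2 h at room temperature.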
# [15] = qHTS assay to identify small molecule antagonists of the peroxisome proliferator-activated receptor delta (PPARd) signaling pathway - cell viability counter screen (AID 743213); conditions: PPARd-bla HEK293H viability, CellTiter-Glo luminescence, 17 h; viability change, negative = cytotoxic: at 62 µM (top of the series) unless noted; further: nearly all actives have a fitted effect of over 50% in size
# Outline: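 HEK293H PPARd UAS-bla cells, 5 h pre-incubation, compound + L165041 300 nM final, 17 h 37 C; B/G FRET substrate 2 h RT; then CellTiter-Glo 30 min RT, luminescence.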
# [16] = target: Thyrotropin receptor (Homo sapiens) (UniProt P16473); assay: qHTS assay to identify small molecule agonists of the thyroid stimulating hormone receptor (TSHR) signaling pathway (AID 1224843; calls by dose curve; further: nearly all actives have a fitted effect of over 45% in size); conditions: TSHR-HEK293 cells, cAMP HTRF, agonist mode, 30 min; activation: at 92.4 µM (top of the series) unless noted
# UniProt P16473, sequence (P16473 whole entry, looked up): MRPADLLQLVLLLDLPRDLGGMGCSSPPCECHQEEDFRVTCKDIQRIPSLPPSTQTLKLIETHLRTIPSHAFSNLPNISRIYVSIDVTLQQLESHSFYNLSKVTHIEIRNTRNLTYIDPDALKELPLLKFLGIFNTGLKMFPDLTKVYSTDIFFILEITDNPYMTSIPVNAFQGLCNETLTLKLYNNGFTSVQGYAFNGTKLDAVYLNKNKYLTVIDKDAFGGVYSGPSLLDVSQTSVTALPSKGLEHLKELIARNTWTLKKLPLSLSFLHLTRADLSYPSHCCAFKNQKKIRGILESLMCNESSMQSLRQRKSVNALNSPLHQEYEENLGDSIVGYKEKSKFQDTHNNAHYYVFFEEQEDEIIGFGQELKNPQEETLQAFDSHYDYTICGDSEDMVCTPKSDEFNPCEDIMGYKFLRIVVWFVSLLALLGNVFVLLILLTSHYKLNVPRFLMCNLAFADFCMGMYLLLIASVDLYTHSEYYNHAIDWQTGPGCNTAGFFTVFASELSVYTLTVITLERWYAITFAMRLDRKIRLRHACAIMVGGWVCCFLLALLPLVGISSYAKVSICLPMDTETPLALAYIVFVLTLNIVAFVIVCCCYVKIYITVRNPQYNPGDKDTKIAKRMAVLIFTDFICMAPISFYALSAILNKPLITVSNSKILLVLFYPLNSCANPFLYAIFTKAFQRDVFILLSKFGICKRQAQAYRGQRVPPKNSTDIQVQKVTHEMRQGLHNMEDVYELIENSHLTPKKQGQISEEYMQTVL
# Outline: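 TSHR-expressing HEK293 cells (800 per well) were exposed to compounds for 30 min at room temperature. cAMP was then detected by HTRF competition with cAMP-d2 and anti-cAMP cryptate, read after 1 h at room temperature. Fifteen concentrations, triplicate.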
# [17] = qHTS assay to identify small molecule agonists of H2AX - cell viability counter screen (AID 1224847; calls by dose curve; further: nearly all actives have a fitted effect of over 30% in size)
# Outline: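 Wild-type CHO-K1 cells (10% FBS medium) were plated overnight at 37C, exposed to compounds at 15 concentrations for 3 hr at 37C (0.76% DMSO final), and viability was read as CellTiter-Glo luminescence after 30 min at room temperature.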
# [18] = qHTS assay to identify small molecule agonists of the retinoic acid receptor (RAR) signaling pathway (AID 1159553); conditions: C3RL4 RARE luciferase reporter, agonist, 6 h; activation: at 73.3 µM (top of the series) unless noted
# Outline: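 Luminescence from a RARE-driven luciferase reporter in C3RL4 cells served as the read-out, measured after 30 min with detection reagent at room temperature. Compounds in DMSO were applied for 6 hr at 37 C following overnight seeding.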
# [19] = qHTS assay to identify small molecule antagonists of the vitamin D receptor (VDR) signaling pathway - cell viability counter screen (AID 743225); conditions: VDR-bla HEK293T viability, CellTiter-Glo luminescence, 16 h; viability change, negative = cytotoxic: at 61 µM (top of the series) unless noted; further: nearly all actives have a fitted effect of over 50% in size
# Outline: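 VDR-bla HEK 293T cells, 4 h pre-incubation at 37C, then compound plus 1-alpha,25-dihydroxyvitamin D3 (3 nM final) for 16 h. After the beta-lactamase FRET read, CellTiter-Glo was added to the same wells; luminescence after 30 min at room temperature.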
# Potency means the concentration at half of the fitted maximal effect; tags describe the fitted curve by direction and shape or compound fluorescence and quenching.
structure (smiles),measurement,setting,value
O=S(=O)(c1ccc(O)cc1)c1ccc(O)cc1,Potency,[1],"inconclusive: 49.3 µM [cytotoxic, single point] and inactive"
same,Potency,[2],active: 3.88 µM and active: 1.93 µM
same,"ratio activity, negative = inhibition",[3],inconclusive: 0.153% [at 80.4 µM]
same,Potency,[4],"inconclusive: 55.3 µM [cytotoxic, partial curve, poor fit]"
same,Potency,[5],"inconclusive: 55.3 µM [cytotoxic, partial curve, poor fit]"
same,Potency,[6],"inconclusive: 55.3 µM [cytotoxic, partial curve, poor fit]"
same,Potency,[7],active: 4.35 µM and active: 4.33 µM
same,Potency,[8],"inconclusive: 34.6 µM [activator, partial curve, poor fit]"
CN(C)CCc1ccc(O)cc1,Potency,[9],inactive
same,Potency,[4],"inconclusive: 0.425 µM [rising, partial curve, poor fit]"
same,Potency,[10],"inconclusive: 33.5 µM [rising, partial curve, poor fit]"
CC(O)C#N (configuration not stated),Potency,[11],inactive
same,Potency,[7],inactive
same,Potency,[10],inactive
same,Potency,[8],inactive
ClCCOCOCCCl,Potency,[12],inactive
same,Potency,[11],"inconclusive: 21.5 µM [rising, single point]"
same,Potency,[13],"inconclusive: 87.7 µM [inhibitor, single point]"
Cc1c(F)c(F)c(COC(=O)C2C(/C=C(\Cl)C(F)(F)F)C2(C)C)c(F)c1F (configuration not stated),Potency,[14],"inconclusive: 0.243 µM [activator, single point]"
same,Potency,[9],"inconclusive: 61100 nM [cytotoxic, partial curve, poor fit]"
same,Potency,[2],inactive
same,Potency,[15],"inconclusive: 5.49 µM [cytotoxic, single point]"
same,Potency,[11],inactive
same,activation,[16],inconclusive: -23%
same,Potency,[17],"inconclusive: 14.2 µM [cytotoxic, full curve]"
same,Potency,[6],inactive
same,Potency,[7],inactive
CCN(CC)CCO,Potency,[14],"inconclusive: 5.45 µM [falling, full curve, poor fit]"
same,Potency,[6],inactive
same,Potency,[7],inactive
same,Potency,[10],inactive
CC(C)CCON=O,Potency,[18],inactive
CC(C)OC(=O)Nc1cccc(Cl)c1,Potency,[9],"inconclusive: 851 nM [rising, full curve, poor fit]"
same,activation,[2],inconclusive: 4.65% [phenotype inactive]
same,Potency,[19],inactive
same,Potency,[18],"inconclusive: 2.69 µM [activator, full curve, poor fit] and active: 6.11 µM"
same,Potency,[17],"inconclusive: 125 µM [cytotoxic, single point] and inconclusive: 127 µM [cytotoxic, single point]"
same,Potency,[7],inactive
COc1cccc([C@@]2(O)CCCC[C@@H]2CN(C)C)c1,Potency,[1],inactive
same,Potency,[2],inactive
same,Potency,[3],"inconclusive: 33.5 µM [activator, single point]"
same,Potency,[18],inactive
COS(=O)(=O)OC,Potency,[9],"inconclusive: 970 nM [rising, single point]"
same,Potency,[2],inactive
same,Potency,[3],inactive
same,Potency,[4],inactive
same,Potency,[13],"inconclusive: 20 µM [inhibitor, full curve, poor fit]"
CCOP(=S)(OCC)SCSP(=S)(OCC)OCC,activation,[14],inconclusive: 2.81%
same,Potency,[2],active: 38.6 µM
same,Potency,[11],"inconclusive: 38.9 µM [cytotoxic, partial curve, poor fit]"
same,activation,[18],inconclusive: 0.919% [phenotype inactive]
same,Potency,[16],"inconclusive: 24.3 µM [inhibitor, partial curve]"
same,Potency,[10],"inconclusive: 68.6 µM [cytotoxic, single point]"
CC(C)(C)C(=O)CCl,Potency,[13],"inconclusive: 87.8 µM [inhibitor, single point]"
CC[N+]1(C)CCCC(OC(=O)C(O)(c2ccccc2)c2ccccc2)C1 (configuration not stated),Potency,[1],inactive
same,Potency,[18],inactive
same,Potency,[10],inactive
same,Potency,[8],inactive
COC(=O)Cc1ccccc1,Potency,[1],inactive
same,Potency,[2],inactive
same,Potency,[19],"inconclusive: 0.049 µM [cytotoxic, full curve, poor fit]"
same,Potency,[5],inactive
same,Potency,[6],inactive
COc1ccc(N)cc1,Potency,[14],"inconclusive: 61.1 µM [falling, single point]"
same,Potency,[9],"inconclusive: 75.6 µM [cytotoxic, single point] and inconclusive: 68 µM [cytotoxic] and inactive"
same,"ratio activity, negative = inhibition",[3],inconclusive: -0.971%
same,Potency,[12],"inconclusive: 3.86 µM [cytotoxic, full curve] and inconclusive: 11 µM [cytotoxic, full curve] and inconclusive: 12.9 µM [cytotoxic, partial curve]"
same,Potency,[19],"inconclusive: 18.2 µM [cytotoxic, full curve]"
same,Potency,[11],"inconclusive: 54.5 µM [cytotoxic, single point]"
same,Potency,[16],"inconclusive: 77 µM [falling, partial curve, poor fit]"
same,activation,[16],inconclusive: 2.43%
same,Potency,[8],"inconclusive: 53.5 µM [activator, partial curve, poor fit] and inconclusive: 54.5 µM [activator, partial curve, poor fit] and inconclusive: 45.4 µM [activator, partial curve]"

# From PubChem BioAssay (Tox21)
